Screen size: about 110,000 compounds; about 230 (0.21%) showed an effect of 50% or more. Some of the results follow.
Biological target: DPAP1 (Plasmodium falciparum, UniProt Q8IIJ9)
Assay: primary screen, percent inhibition; read by cleavage of a fluorogenic dipeptide substrate; higher = more effect of the substance
Parameters: species or system P. falciparum D10 trophozoite lysates; single well
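Further: 30 min substrate incubation versus DMSO and 10 µM JCP410 controls.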

Chain of DPAP1 (Q8IIJ9 whole entry, looked up): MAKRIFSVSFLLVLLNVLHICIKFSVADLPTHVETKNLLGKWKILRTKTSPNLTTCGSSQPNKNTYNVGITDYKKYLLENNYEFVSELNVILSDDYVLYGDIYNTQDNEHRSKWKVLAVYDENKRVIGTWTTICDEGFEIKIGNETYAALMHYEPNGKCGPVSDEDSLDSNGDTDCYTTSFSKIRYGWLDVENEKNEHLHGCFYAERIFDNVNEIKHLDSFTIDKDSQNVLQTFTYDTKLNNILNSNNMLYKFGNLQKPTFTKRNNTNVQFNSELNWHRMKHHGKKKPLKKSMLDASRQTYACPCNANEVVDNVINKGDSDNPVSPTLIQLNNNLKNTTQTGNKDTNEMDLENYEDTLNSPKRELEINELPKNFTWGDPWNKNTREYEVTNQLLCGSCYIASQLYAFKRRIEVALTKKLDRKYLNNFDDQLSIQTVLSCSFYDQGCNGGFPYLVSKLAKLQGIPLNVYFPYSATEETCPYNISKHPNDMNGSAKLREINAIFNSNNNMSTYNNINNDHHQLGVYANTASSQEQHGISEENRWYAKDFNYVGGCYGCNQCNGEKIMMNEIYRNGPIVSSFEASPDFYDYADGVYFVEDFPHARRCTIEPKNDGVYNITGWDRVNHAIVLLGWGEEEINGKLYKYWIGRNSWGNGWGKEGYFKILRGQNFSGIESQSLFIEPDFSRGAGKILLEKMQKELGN

Row | SMILES | % Inhibition @ 10 uM [%]
1 | CN(C)c1ccc(/C=C/CN2CCN(c3ccc(F)cc3)CC2)cc1 | 1.74
2 | CNS(=O)(=O)c1cn(CC(=O)N2CCn3c2nc2ccccc23)cc1S(=O)(=O)NC | -4.36
3 | CCCN(CCC)C(=O)c1ccc(C)nc1 | 5.52
4 | O=C1NC(=O)/C(=C\c2ccc(Br)o2)S1 | 4.86
5 | CC(C(=O)NCC1CCCO1)n1c2ccccc2c2cnn(C)c(=O)c21 (stereo not drawn) | 4.55
6 | COc1cccc(C2NC(=O)NC(C)=C2C(=O)Nc2cccc(C)c2C)c1 (stereo not drawn) | 0.812
7 | Cc1ccc(S(=O)(=O)NC(CC(=O)O)c2ccccc2Cl)c(C)c1 (stereo not drawn) | 2.62
8 | O=C(NCC12CC3CC(CC(C3)C1)C2)c1cc(-c2ccccc2F)no1 | -2.07
9 | Cc1cc(=O)oc2cc(Cl)c(OCC(=O)c3ccccc3)cc12 | -2.87
10 | Cc1cc(C)c(S(=O)(=O)N(C)CC(=O)N2CCN(c3ccccc3F)CC2)c(C)c1 | 1.19
11 | c1ccc(CCN2CCC(N3CCC(N4CCCCC4)CC3)CC2)cc1 | -0.446
12 | CCOc1ccc(NC(=N)Nc2nc(O)c3c(n2)CCCC3)cc1 | -6.64
13 | Cc1onc(-c2ccccc2)c1C(=O)NCCCn1ccnc1 | 3.53
14 | c1ccc(CN2C3=NCCCN3c3ccccc32)cc1 | -0.0505
15 | CN(c1ccc(O)cc1)c1cc(Cl)c2nonc2c1[N+](=O)[O-] | 9.94
16 | O=C1C2C3CCC(C3NCc3ccccc3)C2C(=O)N1Cc1ccccc1 (stereo not drawn) | -3.5
17 | CCN(CC)Cn1c(=O)sc2ccccc21 | 2.46
18 | CCCNC(=O)CSc1cn(CC(=O)N(C(C)C)C(C)C)c2ccccc12 | -0.544
19 | COc1ccc(CN2CC(C)OC(C)C2)cc1Br (stereo not drawn) | -6.12
20 | COc1cccc(CSc2nc3nccnc3c(=O)n2CCC(C)C)c1 | 3.36
21 | N#CCNC(=O)[C@H](Cc1cn(C=O)c2ccccc12)NC(=O)c1ccccc1 | 4.33
22 | O=C(Nc1ccccc1C(=O)O)c1cc(S(=O)(=O)N2CCOCC2)ccc1Cl | -7.27
23 | O=S(=O)(c1ccc(Br)cc1)N1N=C(c2cccs2)CC1c1cccs1 (stereo not drawn) | -2.58
24 | CCc1cc2c(cc3c(=O)n(CC(=O)NCCN4CCOCC4)nc(CC)n32)s1 | 3.29
25 | CC(C)Oc1cc(N2CCOCC2)c(OC(C)C)cc1N | -16.5
26 | COC(=O)c1cc(S(=O)(=O)N(C)C2CCCCC2)cn1C | -6.59

Row | SMILES | % Inhibition @ 10 uM [%]
27 | CC1CCCC(NC(=O)Cn2ncc3c(=O)oc4ccccc4c32)C1C (stereo not drawn) | -6.62
28 | CCN1C(=S)NC2CC1(C)Oc1c(Cl)cccc12 (stereo not drawn) | -5.31
29 | N#CC1=C(N)Oc2ncnc(O)c2C1c1cccc(F)c1 (stereo not drawn) | 0.726
30 | Cc1cccc(CN2C(=O)N/C(=C/c3ccc(O)cc3)C2=O)c1 | 2.01
31 | COc1ccc(C(CC(=O)c2ccccc2)Nc2ccc(Br)cc2)cc1 (stereo not drawn) | -1.74
32 | CC(C)C[C@H](NC(=O)c1cc(Br)cc(Br)c1)C(=O)NCC#N | 0.174
33 | CCC(C)N(C)C1CCN(C(=O)CNC(=O)/C=C/c2cccc(Cl)c2)CC1 (stereo not drawn) | 0.689
34 | O=C(CSc1ncc(S(=O)(=O)c2ccc(Br)cc2)c(O)n1)NCc1ccccc1 | -1.01
35 | CC1(C)OC2OC(COC(=O)c3ccccc3)C3OC(C)(C)OC3C2O1 (stereo not drawn) | -4.24
36 | COCCCN1C(=O)C(O)=C(C(=O)c2ccccc2)C1c1ccc(Cl)cc1Cl (stereo not drawn) | -1.49
37 | CC(C)(c1ccccc1)c1ccc(OCC(=O)N2CCOCC2)cc1 | 15
38 | CCN(CC)CCCNC(=O)CS(=O)(=O)Cc1nc(-c2ccc(C)cc2)oc1C | -5.58
39 | O=C(O)C1CCCN(S(=O)(=O)N2CCOCC2)C1 (stereo not drawn) | -1.6
40 | CNc1c(NC(=O)CCC(=O)O)c(C)nn1-c1ccccc1 | -5.81
41 | Cc1cc(=O)oc2c(C(=O)c3ccccc3)c(O)ccc12 | -3.06
42 | Cc1sc2nc(SCC(=O)NCCOCCO)nc(N)c2c1C | 14.8
43 | Cc1nc2ccn(Cc3cccs3)c(=O)c2cc1C(=O)NCC1CCCO1 (stereo not drawn) | 1.28
44 | CCc1nn(CC(=O)NC2CCCCC2C)c(=O)c2cc3occc3n12 (stereo not drawn) | 1.38
45 | COc1ccc(NC(=O)CSCc2ccc(C#N)cc2)c(OC)c1 | -2.8
46 | CCCC12CN3CC(C)(CN(C1)C3c1ccccc1C)C2=O (stereo not drawn) | 5.44
47 | c1ccc(Cc2nnc3n2N=C(c2ccccc2)CS3)cc1 | -2.91
48 | C=CCn1c(=O)c(C(=O)NCc2ccncc2)c(O)c2ccccc21 | -0.643
49 | C=CCOc1ccccc1/C=c1\sc2nc(-c3ccccc3)nn2c1=O | -1.52
50 | C/C(=C\c1cccs1)C(=O)c1c(C)cc(C)nc1O | 3.47
51 | COc1ccc(CNC(=O)C(C)Oc2ccccc2)cc1 (stereo not drawn) | -3.76
52 | CC(=O)N1CCN(c2ccc(NCc3ccc(F)cc3)cc2)CC1 | 0.59

Row | SMILES | % Inhibition @ 10 uM [%]
53 | CC(=O)N/C(=C/c1ccccc1)C(=O)N1CCOCC1 | 0.545
54 | Cc1nc(C(=O)N[C@@H](CC(C)C)C(=O)NCC#N)nn1-c1ccc(Cl)cc1Cl | 5.76
55 | Cc1ccc(C)c(CN(CCCN(C)C)CCCN(C)C)c1 | -0.817
56 | N#Cc1c(NC(=O)c2cccc(OC(F)F)c2)sc2c1CCC2 | 3.72
57 | CC(C)CCNC(=O)c1nnc(-c2cccc(Cl)c2)o1 | -3.34
58 | COCCNC(=O)c1ccc(CS(=O)c2ccccc2OC)o1 (stereo not drawn) | -4.96
59 | O=C(O)Cn1nnc(-c2cccc(C(F)(F)F)c2)n1 | -3.53
60 | CCOC(=O)C1=CN(C)C=C(C(=O)OCC)C1c1ccc(OC)cc1OC | -5.05
61 | Cc1ccc(C(=O)NCc2cccs2)cc1C | 3.67
62 | Cc1ccc(C(=O)CCC(=O)N2CCN(C(=O)c3ccco3)CC2)cc1 | -13
63 | OCC1OC(Oc2cccc(Cl)c2)C(O)C(O)C1O (stereo not drawn) | 2.99
64 | Cc1ccc(N2C(=O)SC(Nc3ccccc3C(=O)O)C2=O)cc1 (stereo not drawn) | 0.22
65 | c1cncc(-c2nc(NCc3ccco3)c3ccccc3n2)c1 | -1.06
66 | CCc1nnc(/N=C/c2cc(-c3ccccc3)oc2O)s1 | -4.84
67 | CCc1nnc2c3ccccc3nc(NCc3ccc(F)cc3)n12 | -3.28
68 | COc1ccc(OC)c(NC(=O)c2ccc(Cl)cc2)c1 | -6.27
69 | Cc1cc(C)cc(OCC(=O)N(Cc2ccccc2)C2CCS(=O)(=O)C2)c1 (stereo not drawn) | -2.98
70 | O=C(COc1ccc(Cl)cc1Cl)Nc1ccc([N+](=O)[O-])cc1 | -4.35
71 | O=[N+]([O-])c1ccc(CNC23CC4CC(CC(C4)C2)C3)cc1 | -5.2
72 | O=C(O)c1ccc(C/N=c2/c(N3CCCC3)c(O)c2=O)cc1 | -5.47
73 | CN1CCC(N(C)Cc2cccs2)CC1 | -0.0404
74 | O=C1CC(Cc2ccc(Cl)cc2)C(=O)N1CCC12CC3CC(CC(C3)C1)C2 (stereo not drawn) | -6.65
75 | CCCC(=O)N1C2=C(C(=O)c3ccccc32)C(c2ccc(Cl)cc2)c2c1n(C)c(=O)n(C)c2=O (stereo not drawn) | -3.02
76 | Cc1cccc(NC(=O)NC2CCCCC2)n1 | 1.16
77 | Cc1nn(-c2ccccc2)c2c1C(c1ccc(Br)cc1F)C(C#N)=C(N)O2 (stereo not drawn) | -0.988
78 | O=C(Nc1ccccc1)N1CCN(c2ccc([N+](=O)[O-])cc2)CC1 | -1.77

Row | SMILES | % Inhibition @ 10 uM [%]
79 | COc1ccc(C2NC(c3ccc(OC)cc3OC)C(C)C(=O)C2C)c(OC)c1 (stereo not drawn) | 1.83
80 | CCOc1ccc(CCNC(=O)c2noc3c2COc2ccccc2-3)cc1OCC | 80.8
81 | COC(=O)c1ccc(OCc2nn[nH]n2)cc1 | -2.05
82 | O=C(CN1C(=O)c2ccccc2C1=O)NC(c1ccccc1)c1ccccc1 | -0.357
83 | COc1cccc(-c2nc(O)c3c4c(sc3n2)CCCC4)c1 | 6.66
84 | CN(c1cccc(NS(=O)(=O)c2ccc3c(c2)OCCO3)c1)S(C)(=O)=O | 1.57
85 | O=C(Nc1cccc(Cl)c1Cl)c1cccc(Cl)c1 | -1.78
86 | O=C(CSc1nc(-c2ccccc2)cs1)Nc1ccccc1 | -5.1
87 | Cc1nonc1NC(=O)CSc1ncc(-c2ccccc2)n1-c1ccccc1 | -4.42
88 | COc1ccc(NC(=O)CN(c2ccc(OC)cc2)S(C)(=O)=O)cc1 | 0.324
89 | C=CCNC(=O)CC(NS(=O)(=O)c1ccc(F)cc1)c1ccc(OC)cc1 (stereo not drawn) | -2.14
90 | Cc1ccc2oc(=O)c3cc(C(=O)NCCN4CCN(Cc5ccccc5)CC4)sc3c2c1 | -0.646
91 | Cc1cccc(Oc2nc3c(C)cccn3c(=O)c2/C=C(\C#N)c2nc3ccccc3[nH]2)c1 | -5.1
92 | CCc1nn(-c2cc(Oc3ccccc3)ncn2)c(N)c1C#N | 0.851
93 | O=C(Cn1c(=O)c2cccn2c2cccnc21)N1CCN(c2ccccn2)CC1 | -6.3
94 | COc1ccc(OC)c(NC(=O)CN(Cc2ccccc2)S(C)(=O)=O)c1 | -3.34
95 | CCn1nc(C)c(C(=O)Nc2ccn(Cc3ccccc3)n2)c1C | 3.21
96 | CCO/C(O)=C1\C(C)=NC2=C(C(=O)CC(C)(C)C2)C1c1ccccc1OC(C)C (stereo not drawn) | 4.1
97 | O=C(CN1CCCCC1)Nc1c2c(nc3ccccc13)N(c1cccc(Cl)c1)CC2 | -1.54
98 | Cc1ccc(CN2CCN(C(=O)c3ccncc3)CC2)cc1 | -5.17
99 | CCN(CC)C(=O)CCn1cnc2onc(-c3ccc(F)cc3)c2c1=O | 2.76
100 | CC1CCCN(C(=O)NC2CCCCC2)C1 (stereo not drawn) | -11.8
101 | CCCCN(C)C(=O)c1sc2nc3n(c(=O)c2c1C)CCCCC3 | -2.58
102 | O=C1CCN(C(=O)C2CCN(c3ncnc4c3nc3n4CCCCC3)CC2)CC1 | -1.46

Source: paper PMC6919601, “Identification of Plasmodium dipeptidyl aminopeptidase allosteric inhibitors by high throughput screening” (PLoS ONE, 2019)
